{"source": "PubChem BioAssay AID1508624", "about": "(National Center for Advancing Translational Sciences (NCATS), 2021)", "note": "The campaign covered roughly 48,000 compounds. About 120 (0.25%) were called active. Another 4% or so got no clear call; they are omitted. The call rests on the fitted dose curve; in most records, active means well fitted activation curve with a large enough effect; inconclusive means small, poorly fitted or top-dose-only effect, or another doubt; inactive means no such curve, though single readings can be large or run the other way. The list shows a part of the results.", "data": [{"assay": "Primary qHTS for Identification of Small Molecule Activators of Huntingtin-Antisense Promoter Activity; further: nearly all actives have a fitted effect of over 55% in size; further: potency means the concentration at half of the fitted maximal effect", "settings": "HEK293 HTT-AS promoter firefly luciferase reporter, 24 h; series mostly up to 57.5 µM; activity change, positive = activation: at the top concentration", "in_short": "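Quantitative HTS used concentration series of up to 57.5 uM final on HEK293 luciferase reporter cells, 24 h at 37 degrees C. Readout was Dual-Glo firefly luminescence.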", "values": [{"compound": "COc1ccc(C2C=C(c3ccccc3)Nc3nc(NC(=O)/C=C/c4ccccc4Cl)nn32)cc1", "note": "(centres undefined)", "activity change, positive = activation": "inactive: -13.3%"}, {"compound": "Nc1c(C(=O)Nc2cccc(F)c2)c2ccccn2c1C(=O)c1ccccc1", "activity change, positive = activation": "inactive: 2.28%"}, {"compound": "COc1ccc(N2CCN(C(c3ccccc3F)c3sc4nc(-c5ccco5)nn4c3O)CC2)cc1", "note": "(centres undefined)", "activity change, positive = activation": "inactive: -18.3%"}, {"compound": "CCOC(=O)c1c(NC(=O)COc2cccc(C)c2C)sc(C(C)=O)c1C", "activity change, positive = activation": "inactive: 16.6% [at 11.5 µM, percent change from vehicle, -100% = no light]"}, {"compound": "COc1ccc(Cl)cc1NC(=O)Cn1c(=O)c(-c2ccccc2NC(C)=O)nc2ccccc21", "activity change, positive = activation": "inactive: -36%"}, {"compound": "COc1ccc(NC(=O)CN2C(=O)COc3ccc(S(=O)(=O)N4CCCCC4)cc32)cc1OC", "activity change, positive = activation": "inactive: 10.1%"}, {"compound": "CCCCC(=O)N1CCc2cc(OC)c(OC)cc2C1COc1ccc(OC)cc1", "note": "(centres undefined)", "activity change, positive = activation": "inactive: -18.3%"}, {"compound": "Cc1cc(C)c2c(c1)c(C)cc1nnc(SCC(=O)c3ccc(F)cc3)n12", "activity change, positive = activation": "inactive: -10.6%"}, {"compound": "COC(=O)c1ccccc1NC(=O)Cn1c(=O)cc(C)c2c(C)nn(C)c21", "activity change, positive = activation": "inactive: -26%"}, {"compound": "Cc1ccc(C)c(Cn2c(C(=O)O)c(CNCc3cccs3)c3ccccc32)c1", "activity change, positive = activation": "inactive: -29.9%"}, {"compound": "CC(=O)Nc1c(C)nn(-c2ccccc2)c1N1CCC(C(=O)NCc2ccccc2Cl)CC1", "activity change, positive = activation": "inactive: 26.7%"}, {"compound": "Cc1ccc(S(=O)Cc2nc(-c3ccc(C(=O)NCc4cccc(C)c4)cc3)oc2C)cc1", "note": "(centres undefined)", "activity change, positive = activation": "inactive: -12.1%"}, {"compound": "O=C(CCn1nc(-c2ccc(Cl)cc2)ccc1=O)NCCc1ccccc1", "activity change, positive = activation": "inactive: 8.81%"}, {"compound": "CCOC(=O)c1c(NC(=O)CSc2cn(CCNC(=O)c3c(F)cccc3F)c3ccccc23)sc2c1CCC2", "activity change, positive = activation": "inactive: -21.3%"}, {"compound": "COc1ccc(CCN2C(=O)c3[nH]nc(-c4ccccc4O)c3C2c2ccc(OC)c(OC)c2)cc1", "note": "(centres undefined)", "activity change, positive = activation": "inactive: -32.8%"}, {"compound": "CCOC(=O)c1noc2ncnc(Nc3cccc(OC)c3)c12", "activity change, positive = activation": "inactive: -3.18%"}, {"compound": "CCOC(=O)COc1ccc(F)cc1C(=O)c1ccn2nc(-c3ccc(Cl)cc3)cc2n1", "activity change, positive = activation": "inactive: -11%"}, {"compound": "O=C(COc1ccccc1Cl)Nc1ccc2nc(SCC(=O)N3CCCC3)sc2c1", "activity change, positive = activation": "inactive: -31.9%"}, {"compound": "CCOc1ccc(-n2c(SCC(N)=O)nc3c(oc4ccccc43)c2=O)cc1", "activity change, positive = activation": "inactive: -28.9%"}, {"compound": "COc1cccc(NC(=O)CSc2nc(-c3ccccc3Cl)nc3c2Cc2c(CO)cnc(C)c2O3)c1", "activity change, positive = activation": "inactive: -9.68%"}, {"compound": "COc1ccc(-c2cc(-c3ccccc3)nc(SCC(=O)Nc3ccccc3F)c2C#N)cc1", "activity change, positive = activation": "inactive: -2.87%"}, {"compound": "CCOC(=O)C1=C(CS(=O)(=O)c2ccc(OC)c(Cl)c2)NC(=O)NC1c1cccc(OC)c1", "note": "(centres undefined)", "activity change, positive = activation": "inactive: -14.5%"}, {"compound": "Clc1cccc(Cl)c1NC1=NCCN1", "activity change, positive = activation": "inactive"}, {"compound": "O=C(CCCc1ccccc1)NC1CC(=O)N(c2ccc(F)cc2)C1", "note": "(centres undefined)", "activity change, positive = activation": "inactive: -12.8%"}, {"compound": "CC(=O)c1cccc(NS(=O)(=O)c2cc3c(cc2C)N(C(C)=O)CCO3)c1", "activity change, positive = activation": "inactive: -5.63%"}, {"compound": "Cc1ccc(NC(=O)N2CCC(CN3CCCC3)CC2)c(C)c1", "activity change, positive = activation": "inactive: -12.4%"}, {"compound": "Cc1ccc(-c2nc(C(=O)NCc3ccccc3Cl)c3n2CCCCC3)cc1", "activity change, positive = activation": "inactive: -33.4%"}, {"compound": "CCc1cccc(NC(=O)c2ccc(NC(=O)N3CCSc4ncccc43)cc2)c1", "activity change, positive = activation": "inactive: -14.3%"}, {"compound": "Cc1ccc(NC(=O)N2CCN(c3cc(-c4noc(C)n4)ccc3C)CC2)c(F)c1", "activity change, positive = activation": "inactive: -36.4%"}, {"compound": "CCC(=O)Oc1ccc(C2Nc3ccccc3-c3nnc(SC)nc3O2)cc1", "note": "(centres undefined)", "activity change, positive = activation": "inactive: -8.03%"}, {"compound": "CN1N=C(C(N)=O)CCC1=O", "activity change, positive = activation": "inactive: 1.69%"}, {"compound": "Cc1ccc2nc(-c3cc(NC(=O)COc4ccc(C)c(C)c4)ccc3Cl)oc2c1", "Potency": "active: 2510 nM"}, {"compound": "O=C1[C@H]2CCCC[C@H]2C(=O)N1CCCCN1CCN(c2nsc3ccccc23)CC1", "activity change, positive = activation": "inactive: 1.82%"}, {"compound": "COC(=O)C1CCN(S(=O)(=O)c2ccc(N3CCCCS3(=O)=O)cc2)CC1", "activity change, positive = activation": "inactive: -17.6%"}, {"compound": "COC(=O)c1cc(C)nc2c1c(=O)nc(SCc1ccccc1C)n2C1CC1", "activity change, positive = activation": "inactive: -26.5%"}, {"compound": "Cc1ccc(C(=O)NCC(c2ccc3c(c2)OCO3)N2CCOCC2)cc1", "note": "(centres undefined)", "activity change, positive = activation": "inactive: -9.9%"}, {"compound": "CCc1nn(CCCC(=O)N2CCN(c3cccc(OC)c3)CC2)c(=O)c2cc3occc3n12", "activity change, positive = activation": "inactive: -16.8%"}, {"compound": "Cc1c(-c2nc(-c3ccc4c(c3)OCO4)no2)nnn1-c1ccc(C(C)C)cc1", "activity change, positive = activation": "inactive: -3.29%"}, {"compound": "Cc1cccc(NC(=O)C(Cc2ccccc2)NS(=O)(=O)c2ccc3c(c2)c(=O)n(C)c(=O)n3C)c1", "note": "(centres undefined)", "activity change, positive = activation": "inactive: -9.15%"}, {"compound": "COc1ccc(Nc2ncnc3onc(-c4ccc(Cl)cc4)c23)cc1Cl", "activity change, positive = activation": "inactive: -37.9%"}, {"compound": "Cc1ccc(NC(=O)c2cn(-c3ccccc3)nc2-c2ccccc2)cc1", "activity change, positive = activation": "inactive: -14.6%"}, {"compound": "CCCCn1c(SCC(=O)Nc2cccc(OC)c2)nc2ccsc2c1=O", "activity change, positive = activation": "inactive: -29.9%"}, {"compound": "O=C(NCc1ccccc1)c1ccc(NC(=O)N2CCSc3ncccc32)cc1", "activity change, positive = activation": "inactive: -32.6%"}, {"compound": "COc1cc(OC)c(NC(=O)c2cnn(-c3cccc(Cl)c3C)c2C2CCN(C(=O)OC(C)(C)C)CC2)cc1Cl", "activity change, positive = activation": "inactive: -0.465%"}, {"compound": "COc1ccc(-n2cc(-c3ccccc3)c3c(NCc4cccc(Cl)c4)ncnc32)cc1", "activity change, positive = activation": "inactive: -13.7%"}, {"compound": "Cc1ccc(C2=NN(CC(=O)NC(C)c3ccccc3)C(=O)CC2)cc1", "note": "(centres undefined)", "activity change, positive = activation": "inactive: -4.59%"}, {"compound": "CCOC(=O)c1c(NC(=O)COc2cccc(C)c2C)sc2c1CCCCC2", "activity change, positive = activation": "inactive: -13.7% [at 11.5 µM, percent change from vehicle, -100% = no light]"}, {"compound": "COc1ccc(NC(=O)C2CCC(CNS(=O)(=O)c3csc(C(N)=O)c3)CC2)cc1", "note": "(centres undefined)", "activity change, positive = activation": "inactive: -18.5%"}, {"compound": "CC(C)c1ccc(Nc2c(-c3ccc(N4CCOCC4)cc3)nc3ncccn23)cc1", "activity change, positive = activation": "inactive: -10.4%"}, {"compound": "Cc1ccc(Cn2ccn(Cc3cccc(C(F)(F)F)c3)c(=O)c2=O)cc1", "activity change, positive = activation": "inactive: -9.93%"}, {"compound": "COc1cccc(NC(=O)CSc2nc3c([nH]c4ccccc43)c(=O)n2-c2cccc(Cl)c2)c1", "activity change, positive = activation": "inactive: -1.88%"}, {"compound": "Cc1ccc(-c2ccc(=O)n(CC(=O)Nc3ccc(C(C)C)cc3)n2)cc1", "activity change, positive = activation": "inactive: -8.72%"}, {"compound": "CCOC(=O)c1ccc(NC(=O)CSc2nc(C)c(Cc3ccccc3)c(=O)[nH]2)cc1", "activity change, positive = activation": "inactive: -19.5%"}, {"compound": "C=CCOc1ccc(C2c3c(oc4ccc(C)cc4c3=O)C(=O)N2CCCN2CCOCC2)cc1", "note": "(centres undefined)", "activity change, positive = activation": "inactive: -3.38%"}, {"compound": "COc1ccccc1NC(=O)c1c(C)cc(C)nc1SCC(=O)Nc1cccc(C)c1", "activity change, positive = activation": "inactive: -22.7%"}, {"compound": "COCCNC(=O)CCn1c(=O)c2cc(OC)c(OC)cc2n(CC(=O)Nc2ccccc2OC)c1=O", "activity change, positive = activation": "inactive: -19.5%"}, {"compound": "Cc1ccc(-n2nc(C)c3c(C)cc(=O)n(CC(=O)NC(C)C)c32)cc1", "activity change, positive = activation": "inactive: -3.24%"}, {"compound": "CCc1cccc(CC)c1N(COC)C(=O)Cn1c(C)nc2ccccc21", "activity change, positive = activation": "inactive: -67.6%"}, {"compound": "CCN(CC)CCOC(=O)c1ccc(NC(=O)CSc2cc(=O)n(CC)c3ccccc23)cc1", "activity change, positive = activation": "inactive: 9.51%"}]}]}
